# Results from the supplement of paper PMC4604168 (melanoma cell lines).
# Some of the results follow. Repeats are few or missing, and single values can be far off.
# Legend:
# Test in all cases: cell count relative to DMSO control; melanoma cells; higher = more viable cells
# Details in all cases: library dose: low library concentration; 72 h
# [1] = tested on: COLO792
# [2] = tested on: COLO800
# [3] = tested on: COLO829
# [4] = tested on: G361
# [5] = tested on: IPC-298
# [6] = tested on: IST-MEL1
# [7] = tested on: LB2518-MEL
# [8] = tested on: LOXIMVI
# [9] = tested on: MEL-HO
# [10] = tested on: MZ2-MEL
# [11] = tested on: MeWo
# [12] = tested on: RPMI7951
# [13] = tested on: RVH-421
# [14] = tested on: SkMel28
# [15] = tested on: SkMel2
# [16] = tested on: SkMel30
# [17] = tested on: SkMel5
# [18] = tested on: UACC257
# [19] = tested on: UACC62
# 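Further: cell number obtained by counting DAPI-stained nuclei in high-throughput microscope images with image analysis software, screen run in 1,536-well plates.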
Structure (SMILES),cell count [1] [%],cell count [2] [%],cell count [3] [%],cell count [4] [%],cell count [5] [%],cell count [6] [%],cell count [7] [%],cell count [8] [%],cell count [9] [%],cell count [10] [%],cell count [11] [%],cell count [12] [%],cell count [13] [%],cell count [14] [%],cell count [15] [%],cell count [16] [%],cell count [17] [%],cell count [18] [%],cell count [19] [%]
"OCc1c[nH]c2ccccc12 [Indole-3-carbinol] + C/C(O)=C(\C#N)C(=O)Nc1cc(Br)ccc1Br [LFM-A13] (first compound 0.8 µM, partner dose 2 µM)",103,58.7,89.2,98.8,95.6,85.2,95.4,118,106,99.3,81.4,86.8,106,83.4,87.4,102,84.4,71.1,80.5
"O=c1[nH]nc(Sc2ncc([N+](=O)[O-])s2)n1-c1ccc2c(c1)OCCO2 + C/C(O)=C(\C#N)C(=O)Nc1cc(Br)ccc1Br [LFM-A13] (first compound 0.2 µM, partner dose 2 µM)",91.4,93,98.1,84.9,101,97.3,106,74.2,116,103,101,106,85,98.7,102,99.6,96.9,98.7,92.6
"CCN(CC)CCNC(=O)c1c(C)[nH]c(/C=C2\C(=O)Nc3ccc(F)cc32)c1C [sunitinib] + C/C(O)=C(\C#N)C(=O)Nc1cc(Br)ccc1Br [LFM-A13] (first compound 0.4 µM, partner dose 2 µM)",88.7,81.4,107,89.2,105,90.9,108,119,105,99.8,81.9,101,147,84.7,109,68.5,111,96.4,91.4
"Nc1nc(F)nc2c1ncn2[C@@H]1O[C@H](CO)[C@@H](O)[C@@H]1O [fludarabine] + Cc1cc(SCc2sc(-c3ccc(C(F)(F)F)c(F)c3)nc2C)ccc1OCC(=O)O [GW0742] (first compound 0.2 µM, partner dose 2 µM)",93.5,106,96,87.4,93,93.1,107,112,98,99.5,34.5,88.8,71.1,88.5,7.97,18,63.7,120,84.3
"CC[C@]1(O)C[C@H]2CN(CCc3c([nH]c4ccccc34)[C@@](C(=O)OC)(c3cc4c(cc3OC)N(C=O)[C@H]3[C@@](O)(C(=O)OC)[C@H](OC(C)=O)[C@]5(CC)C=CCN6CC[C@]43[C@@H]65)C2)C1 [vincristine] + O=C(Oc1ccc([N+](=O)[O-])cc1)N1CCC(C(O)(c2ccc3c(c2)OCO3)c2ccc3c(c2)OCO3)CC1 [JZL184] (first compound 0.0001 µM, partner dose 1 µM)",90.9,83.6,73,101,99.4,109,108,82.5,98.1,98.9,71.5,75.6,85.4,71.7,100,48.1,82.7,55,44.9
"N#CC[C@H](C1CCCC1)n1cc(-c2ncnc3[nH]ccc23)cn1 [ruxolitinib] + Cc1cc(SCc2sc(-c3ccc(C(F)(F)F)c(F)c3)nc2C)ccc1OCC(=O)O [GW0742] (first compound 1 µM, partner dose 2 µM)",100,150,106,89.8,101,101,,91.1,97.3,103,98.8,101,90,112,103,112,103,86.6,113
"O=C(/C=C/c1cccnc1)NCCCCC1CCN(C(=O)c2ccccc2)CC1 + O=C(Oc1ccc([N+](=O)[O-])cc1)N1CCC(C(O)(c2ccc3c(c2)OCO3)c2ccc3c(c2)OCO3)CC1 [JZL184] (first compound 0.01 µM, partner dose 1 µM)",53.5,28.4,54.2,10.3,42.2,70.3,104,77.9,52,42.6,98.8,103,58.1,92.9,60.8,82.5,79.5,91.2,112
"Cn1c(=O)n(-c2ccc(C(C)(C)C#N)cc2)c2c3cc(-c4cnc5ccccc5c4)ccc3ncc21 + O=C(Oc1ccc([N+](=O)[O-])cc1)N1CCC(C(O)(c2ccc3c(c2)OCO3)c2ccc3c(c2)OCO3)CC1 [JZL184] (first compound 0.004 µM, partner dose 1 µM)",107,105,105,105,98.5,98.8,106,115,93.7,97.1,97.9,93.5,103,67.5,91.6,75.9,100,81.9,78.3
"Cn1sc(=O)n(Cc2ccccc2)c1=O + O=C(Oc1ccc([N+](=O)[O-])cc1)N1CCC(C(O)(c2ccc3c(c2)OCO3)c2ccc3c(c2)OCO3)CC1 [JZL184] (first compound 0.4 µM, partner dose 1 µM)",91.6,119,117,112,96.4,103,115,104,118,99.8,89,97.5,108,90.3,92.8,97.1,99.5,92.3,94.5
"C[C@@H](Oc1cc(-c2cnn(C3CCNCC3)c2)cnc1N)c1c(Cl)ccc(F)c1Cl [Crizotinib] + O=C(Oc1ccc([N+](=O)[O-])cc1)N1CCC(C(O)(c2ccc3c(c2)OCO3)c2ccc3c(c2)OCO3)CC1 [JZL184] (first compound 0.2 µM, partner dose 1 µM)",96.6,127,101,105,98.3,111,106,126,104,103,99.3,90.7,98.8,102,103,117,100,87,85.8
"COc1cc([C@@H]2c3cc4c(cc3[C@@H](O[C@@H]3O[C@@H]5CO[C@@H](C)O[C@H]5[C@H](O)[C@H]3O)[C@H]3COC(=O)[C@H]23)OCO4)cc(OC)c1O [etoposide] + O=C(Oc1ccc([N+](=O)[O-])cc1)N1CCC(C(O)(c2ccc3c(c2)OCO3)c2ccc3c(c2)OCO3)CC1 [JZL184] (first compound 0.02 µM, partner dose 1 µM)",93.6,117,130,98.8,91.5,105,90.6,87.5,100,92.9,104,95.2,94.3,94.5,90.8,89.6,88.2,107,76.3
"Nc1nc(F)nc2c1ncn2[C@@H]1O[C@H](CO)[C@@H](O)[C@@H]1O [fludarabine] + O=C(Oc1ccc([N+](=O)[O-])cc1)N1CCC(C(O)(c2ccc3c(c2)OCO3)c2ccc3c(c2)OCO3)CC1 [JZL184] (first compound 0.2 µM, partner dose 1 µM)",90.2,116,77.8,98.7,99.1,98.4,112,107,92.2,103,31.5,85.7,86.2,73.2,6.97,14.6,54.6,93.9,85.6
"Nc1ncn([C@H]2C[C@H](O)[C@@H](CO)O2)c(=O)n1 [decitabine] + C/C(O)=C(\C#N)C(=O)Nc1cc(Br)ccc1Br [LFM-A13] (first compound 0.1 µM, partner dose 2 µM)",88.2,89.8,62.9,96.9,74.5,95,87,59.8,85.7,89.9,100,74.8,91.4,77.7,103,78.6,93.6,96.4,66.7
